{
  "source": "PubChem BioAssay AID1347165",
  "about": "(National Center for Advancing Translational Sciences (NCATS), 2019)",
  "note": "The campaign covered roughly 220,000 compounds. About 5,700 (2.6%) were called active. The inconclusive results got no clear call from the source; some entries with a clear call stand among them for comparison. The call rests on the fitted dose curve; in most records, active means well fitted inhibition curve with a large enough effect; inconclusive means small, poorly fitted or top-dose-only effect; inactive means no such curve, though single readings can be large or run the other way. A potency beside an inconclusive call is a rough fit, not a confirmed value. Potency means the concentration at half of the fitted maximal effect; tags describe the fitted curve by direction and shape.",
  "data": [
    {"target": "Lysine-specific demethylase 5B (Homo sapiens) (UniProt Q9UGL1)", "sequence (Q9UGL1 whole entry, looked up)": "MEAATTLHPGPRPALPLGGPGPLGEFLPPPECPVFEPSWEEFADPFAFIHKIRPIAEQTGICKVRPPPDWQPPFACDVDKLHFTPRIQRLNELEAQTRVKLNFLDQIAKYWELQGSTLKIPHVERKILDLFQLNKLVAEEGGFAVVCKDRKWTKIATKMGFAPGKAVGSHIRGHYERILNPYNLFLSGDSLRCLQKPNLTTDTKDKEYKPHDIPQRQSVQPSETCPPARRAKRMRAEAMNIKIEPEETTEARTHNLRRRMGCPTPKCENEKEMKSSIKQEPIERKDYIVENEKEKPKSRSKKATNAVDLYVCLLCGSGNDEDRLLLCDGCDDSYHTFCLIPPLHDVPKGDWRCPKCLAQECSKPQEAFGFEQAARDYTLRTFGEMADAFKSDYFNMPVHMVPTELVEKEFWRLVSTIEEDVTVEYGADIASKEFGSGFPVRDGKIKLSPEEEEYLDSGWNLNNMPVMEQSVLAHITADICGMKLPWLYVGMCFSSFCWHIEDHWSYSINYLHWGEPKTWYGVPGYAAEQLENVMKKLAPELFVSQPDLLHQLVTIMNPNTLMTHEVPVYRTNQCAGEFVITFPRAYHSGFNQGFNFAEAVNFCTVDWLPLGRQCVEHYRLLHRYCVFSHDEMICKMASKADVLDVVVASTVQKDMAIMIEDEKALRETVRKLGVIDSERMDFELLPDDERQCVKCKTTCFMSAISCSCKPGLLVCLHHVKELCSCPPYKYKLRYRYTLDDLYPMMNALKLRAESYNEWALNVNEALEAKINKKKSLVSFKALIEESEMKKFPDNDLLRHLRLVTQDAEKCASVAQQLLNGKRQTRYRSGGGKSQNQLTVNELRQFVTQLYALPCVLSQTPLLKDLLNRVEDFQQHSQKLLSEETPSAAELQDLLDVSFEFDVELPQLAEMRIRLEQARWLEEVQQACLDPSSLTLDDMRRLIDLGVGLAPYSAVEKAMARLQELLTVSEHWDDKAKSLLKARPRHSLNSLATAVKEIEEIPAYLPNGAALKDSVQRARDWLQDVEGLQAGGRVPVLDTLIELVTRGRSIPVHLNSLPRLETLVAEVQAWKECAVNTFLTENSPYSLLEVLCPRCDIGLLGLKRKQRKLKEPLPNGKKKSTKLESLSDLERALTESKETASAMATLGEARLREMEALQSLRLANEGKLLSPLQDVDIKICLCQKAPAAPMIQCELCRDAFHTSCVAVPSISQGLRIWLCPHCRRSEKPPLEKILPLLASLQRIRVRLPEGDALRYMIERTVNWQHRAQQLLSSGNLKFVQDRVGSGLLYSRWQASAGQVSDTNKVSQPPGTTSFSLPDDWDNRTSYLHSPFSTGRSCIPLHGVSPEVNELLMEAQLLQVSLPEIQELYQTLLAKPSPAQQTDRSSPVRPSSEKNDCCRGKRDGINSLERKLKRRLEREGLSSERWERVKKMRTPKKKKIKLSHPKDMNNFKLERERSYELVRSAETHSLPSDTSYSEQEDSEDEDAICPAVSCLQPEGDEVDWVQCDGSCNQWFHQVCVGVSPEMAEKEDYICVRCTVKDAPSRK", "assay": "Primary screen for KDM5B Histone Demethylases FDH-coupled qHTS; further: nearly all actives have a fitted effect of over 70% in size; on activity change, negative = inhibition: 0% is about no effect", "details": "FDH-coupled NADH fluorescence (FDH is formaldehyde dehydrogenase); activity change, negative = inhibition: at 57.7 µM (top of the series) unless noted", "how_it_was_run": "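Coupled FDH/NAD⁺ fluorescence readout. KDM5BΔAP 200 nM final; compound titration, 10 min RT preincubation; substrate mix 12.5 µM H3K4me3, 25 µM 2-OG, 50 µM Fe(II), 100 µM ascorbate, 0.25 mM NAD⁺, 0.25 U/mL FDH; ΔRFU over 30 min.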", "values": [
      {"smiles": "Cc1ccc2nc(C)cc(C(=O)NCCCOC(C)C)c2c1", "activity change, negative = inhibition": "inactive: 111%"},
      {"smiles": "COCCN1CCNc2nc(COc3cccc(F)c3)n(Cc3ccccc3)c2C1=O", "activity change, negative = inhibition": "inactive: -11.5% [at 86.2 µM]"},
      {"smiles": "O=C(Nc1ccc(-c2nnnn2C2CC2)cc1)C1CCCC1", "activity change, negative = inhibition": "inactive: 5.74%"},
      {"smiles": "O=C(Nc1cccc(OCc2cc(=O)n3ccccc3n2)c1)c1ccccc1Br", "Potency": "inconclusive: 1 µM [inhibitor, partial curve, poor fit]"},
      {"smiles": "CN(CCO)C(=O)COc1cc(O)c2c(=O)cc(-c3ccccc3)oc2c1", "activity change, negative = inhibition": "inactive: -6.66%"},
      {"smiles": "N#Cc1cccnc1N1CCN(Cc2ccc(F)c(F)c2)C(CCO)C1", "note": "(configuration not stated)", "Potency": "active: 12.6 µM"},
      {"smiles": "CCC(=O)Nc1ccc(-c2c(-c3cc(OC)cc(OC)c3)nn(-c3ccc(C)cc3)c2OC(C)=O)cc1", "Potency": "active: 28.2 µM"},
      {"smiles": "Cc1ccc(-c2nc3c(c(SCC(=O)N(C)c4ccccc4)n2)Cc2c(CO)cnc(C)c2O3)cc1", "Potency": "inconclusive: 31.6 µM [inhibitor, single point]"},
      {"smiles": "CCOc1ccc(-c2cc3c(=O)n(CCNC(=O)c4ccc(Cl)cc4)ccn3n2)cc1", "activity change, negative = inhibition": "inactive: -6.91%"},
      {"smiles": "CCOc1ccc(CN2CCc3nc(N4CCN(c5ncccn5)CC4)ncc3C2)cc1OC", "Potency": "inconclusive: 39.8 µM [inhibitor, single point]"},
      {"smiles": "Cc1ccc(-c2c(C(=O)N3CCN(c4cccc(C)c4)C(C)C3)oc(=O)c3ccccc23)cc1", "note": "(configuration not stated)", "Potency": "inconclusive: 15.8 µM [inhibitor, single point]"},
      {"smiles": "CC(C(=O)N(C)C1CCCCC1)N(C)CC(=O)Nc1ccc(Cl)cc1", "note": "(configuration not stated)", "activity change, negative = inhibition": "inactive: 25%"},
      {"smiles": "COC(=O)C1=C(C)N=C2SCCC(=O)N2C1c1ccc(OCc2ccccc2)c(OC)c1", "note": "(configuration not stated)", "Potency": "inconclusive: 31.6 µM [inhibitor, single point]"},
      {"smiles": "O=C(Nc1ccc(Oc2ccccc2)cc1)N[C@H]1CO[C@H]2[C@@H]1OC[C@@H]2Nc1nccc(-c2cccc(F)c2)n1", "Potency": "inconclusive: 28.2 µM [inhibitor, partial curve, poor fit]"},
      {"smiles": "Cc1ccc(C)c(C(=O)NC2CCN(c3cc(C(F)(F)F)nc(C)n3)CC2)c1", "Potency": "inconclusive: 28.2 µM [inhibitor, single point]"},
      {"smiles": "Cc1ccnc(N2CC[C@@H]3[C@@H](CCC(=O)N3CCc3ccccn3)C2)n1", "Potency": "active: 22.4 µM"},
      {"smiles": "CCc1c(C)c2cc(Cl)c(O)c(CN3CCCC3)c2oc1=O", "Potency": "inconclusive: 25.1 µM [inhibitor, partial curve, poor fit]"},
      {"smiles": "COc1ccc(-c2ccnc3ncnn23)c(F)c1", "Potency": "active: 28.2 µM"},
      {"smiles": "CCOc1ccc(NC(=O)C2CCN(c3nc4ccccc4[nH]3)CC2)cc1", "Potency": "inconclusive: 35.5 µM [inhibitor, single point]"},
      {"smiles": "COc1ccc2c(C)c(CCC(=O)NCc3ccc(C)cc3)c(=O)oc2c1", "Potency": "inconclusive: 1.78 µM [inhibitor, partial curve, poor fit]"},
      {"smiles": "CCOC(=O)c1ccoc1COC(=O)c1[nH]c(C)c(C(=O)OC)c1C", "activity change, negative = inhibition": "inactive: 5.72%"},
      {"smiles": "CN1c2cc(C(=O)Nc3cccc(OC(F)(F)F)c3)ccc2C(=O)N2CCCCC21", "note": "(configuration not stated)", "Potency": "inconclusive: 22.4 µM [inhibitor, partial curve, poor fit]"},
      {"smiles": "CCN(CC)S(=O)(=O)c1ccc(-c2nc(C#N)c(N3CCC(Cc4ccccc4)CC3)o2)cc1", "Potency": "inconclusive: 22.4 µM [inhibitor, partial curve, poor fit]"},
      {"smiles": "CC(=O)c1cc2c(cc1NC(=O)CSc1nnc(C3CCCCC3)o1)OCO2", "Potency": "inconclusive: 28.2 µM [inhibitor, single point]"},
      {"smiles": "C=CCN(Cc1ccccc1OCC)C(=O)CCn1cccc1", "activity change, negative = inhibition": "inactive: -14.7%"},
      {"smiles": "CC(Sc1ncnc2c1cnn2-c1ccccc1)C(=O)Nc1ccc(N2CCOCC2)cc1", "note": "(configuration not stated)", "Potency": "inconclusive: 39.8 µM [inhibitor, single point]"},
      {"smiles": "Cc1ncc2c(c1CNC(=O)c1cc(C(C)C)n3ncnc3n1)CCNC2", "Potency": "inconclusive: 22.4 µM [inhibitor, partial curve, poor fit]"},
      {"smiles": "CCCOc1nccnc1NC1CCN(C(=O)c2cccs2)CC1", "Potency": "inconclusive: 25.1 µM [inhibitor, partial curve, poor fit]"},
      {"smiles": "CC(C)NC(=O)C[C@@H]1O[C@H](CNC(=O)Nc2ccccc2)[C@@H](O)[C@H]1O", "Potency": "inconclusive: 22.4 µM [inhibitor, partial curve]"},
      {"smiles": "Cc1ccc(C)c(Cn2ccn3nc(-c4ccc(F)cc4)c(CO)c3c2=O)c1", "Potency": "inconclusive: 25.1 µM [inhibitor, single point]"},
      {"smiles": "O=C(NCC1CCOCC1)c1ccc2[nH]ccc2c1", "Potency": "inconclusive: 12.6 µM [inhibitor, partial curve]"},
      {"smiles": "Cn1nc(C(=O)OCCOc2cccc(Cl)c2)c2ccccc2c1=O", "activity change, negative = inhibition": "inactive: 10.7%"},
      {"smiles": "CCN(CC)c1ccc(/C=N\\NC(=O)c2cccc3cc[nH]c23)cc1", "Potency": "inconclusive: 31.6 µM [inhibitor, single point]"},
      {"smiles": "Cn1cnnc1CC1CCN(C(=O)c2cccs2)CC1", "activity change, negative = inhibition": "inactive: -15.2%"},
      {"smiles": "N#C/C(=C\\c1ccc(-c2cccc(Cl)c2)o1)C(=O)Nc1cccc(C(F)(F)F)c1", "Potency": "inconclusive: 1.78 µM [inhibitor, partial curve, poor fit]"},
      {"smiles": "CC(NC(=O)c1ccoc1)C(=O)Nc1cccnc1N1CCCCC1", "note": "(configuration not stated)", "activity change, negative = inhibition": "inactive: 0.331%"},
      {"smiles": "COc1cc(Cl)ccc1C(=O)N[C@@H]1CN(c2ccncn2)C[C@H]1CN(C)C", "activity change, negative = inhibition": "inactive: -26.9%"},
      {"smiles": "COc1ccc(NC2=N[C@H]3[C@@H](O)[C@H](O)C[C@H](C(=O)NCc4ccccc4OC)[C@H]3S2)cc1", "activity change, negative = inhibition": "inactive: 19.7%"},
      {"smiles": "O=C(c1[nH]nc2c1CCc1ccccc1-2)N1CCC(c2noc(-c3ccccn3)n2)C1", "note": "(configuration not stated)", "activity change, negative = inhibition": "inactive: 6.11%"},
      {"smiles": "CCOC(=O)C1CCCN(C(=O)CC(c2ccc3c(c2)OCO3)c2cn(CC)c3ccccc23)C1", "note": "(configuration not stated)", "Potency": "inconclusive: 22.4 µM [inhibitor, partial curve]"},
      {"smiles": "O=C(CCCN1CCCCC1=O)N[C@@H]1[C@@H]2CCO[C@@H]2[C@@H]1C1CCCC1", "activity change, negative = inhibition": "inactive: 40.8%"},
      {"smiles": "O=C1COc2ccc(-c3ccoc3)nc2CN1Cc1ccc(C(F)(F)F)cc1", "Potency": "active: 35.5 µM"},
      {"smiles": "CCN(CC)c1ccc(/C=N/NC(=O)CNC(=O)/C=C/c2ccco2)cc1", "Potency": "inconclusive: 28.2 µM [inhibitor, partial curve, poor fit]"},
      {"smiles": "CCc1ccc(-c2cc(C(=O)NCCc3ccccc3)c3ccccc3n2)cc1", "Potency": "inconclusive: 39.8 µM [inhibitor, single point]"},
      {"smiles": "COC(=O)c1c(C)cccc1NCC(=O)NC(=O)NC(C)C", "activity change, negative = inhibition": "inactive: -19.4%"},
      {"smiles": "O=C(O)c1cccc(NS(=O)(=O)c2ccc(Cl)c(C(=O)Nc3cccc([N+](=O)[O-])c3)c2)c1", "Potency": "inconclusive: 28.2 µM [inhibitor, partial curve, poor fit]"},
      {"smiles": "COc1ccc(NC(=O)Nc2ccc(C)n(CC(=O)Nc3ccc(C)c(C)c3)c2=O)cc1", "Potency": "active: 17.8 µM"},
      {"smiles": "CCc1cc(=O)n(CC(=O)Nc2ccc(Br)cc2)c(N2CCOCC2)n1", "Potency": "inconclusive: 22.4 µM [inhibitor, single point]"},
      {"smiles": "O=C(C1CCCCC1)N1CC[C@H](c2nnc(-c3ccncc3)o2)C1", "Potency": "inconclusive: 50.1 µM [inhibitor, partial curve, poor fit]"},
      {"smiles": "COc1ccc(N2CCN(C(c3ccc(F)cc3)c3sc4nc(-c5ccco5)nn4c3O)CC2)cc1", "note": "(configuration not stated)", "Potency": "inconclusive: 28.2 µM [inhibitor, single point]"},
      {"smiles": "Fc1ccccc1CN1CCNc2cnc(Oc3ccccc3)cc2C1", "Potency": "inconclusive: 35.5 µM [inhibitor, single point]"},
      {"smiles": "CNC(=O)CCN(C)c1nccc(-c2ccc(C)nc2C)n1", "Potency": "active: 25.1 µM"},
      {"smiles": "C=CCNc1nc(-c2ccc(CNC(=O)C(C)(C)C)s2)cs1", "Potency": "inconclusive: 15.8 µM [inhibitor, partial curve, poor fit]"},
      {"smiles": "CC(=O)N1CCCC1c1nc2ccccc2n1Cc1ccccc1F", "note": "(configuration not stated)", "Potency": "inconclusive: 17.8 µM [inhibitor, partial curve, poor fit]"},
      {"smiles": "CCN(Cc1cnn(CC)c1)C(=O)c1ccc(N2CC3CC(C2)[C@H]2CCCC(=O)N2C3)nc1", "note": "(some centres not stated)", "Potency": "inconclusive: 22.4 µM [inhibitor, partial curve, poor fit]"},
      {"smiles": "CCN1CCN(C(c2ccc(F)cc2)c2sc3nc(-c4ccco4)nn3c2O)CC1", "note": "(configuration not stated)", "activity change, negative = inhibition": "inactive: -17.2%"},
      {"smiles": "O=C(NCc1cccnc1)c1ccc2c(c1)N(Cc1ccccc1)C(=O)c1ccccc1S2=O", "note": "(configuration not stated)", "activity change, negative = inhibition": "inactive: 20.7%"},
      {"smiles": "COc1cccc(/C=C2\\Oc3cc(OS(C)(=O)=O)ccc3C2=O)c1", "Potency": "inconclusive: 39.8 µM [inhibitor, single point]"},
      {"smiles": "Cc1cc(C)cc(COc2ccc3c(C)c(CC(=O)O)c(=O)oc3c2C)c1", "Potency": "inconclusive: 11.2 µM [inhibitor, partial curve, poor fit]"},
      {"smiles": "COc1ccc(F)c(F)c1CN1CCC2(CCNCC2)C1", "Potency": "inconclusive: 31.6 µM [inhibitor, partial curve, poor fit]"},
      {"smiles": "Clc1ccc(-c2ccc(CN3CC[C@H]4CC[C@@H](C3)N4)o2)cc1", "activity change, negative = inhibition": "inactive: 54.3%"},
      {"smiles": "Cc1ccc(C(=O)N2CCC3(CC2)N=C(c2cccc(Br)c2)NO3)cc1", "Potency": "active: 31.6 µM"},
      {"smiles": "CCCn1cc(S(=O)(=O)c2cccc(Cl)c2)c(=O)c2cc(F)c(N3CCCC3)cc21", "Potency": "inconclusive: 35.5 µM [inhibitor, partial curve, poor fit]"},
      {"smiles": "CN(C)C(=O)N1C2CCC1CN(c1ccc(C(F)(F)F)cc1)C2", "activity change, negative = inhibition": "inactive: -10.7% [at 149 µM]"},
      {"smiles": "CN(C(=O)c1ccc2nc(-c3ccc(F)cc3)cn2c1)C1CCOCC1", "Potency": "active: 22.4 µM"},
      {"smiles": "CN1Cc2c(cc(N3CCOCC3)nc2-c2cccc(N[S+](C)(=O)[O-])c2)C1=O", "Potency": "active: 35.5 µM"},
      {"smiles": "COc1ccccc1N1CCN(C(=O)CNS(=O)(=O)c2ccc(Br)s2)CC1", "Potency": "inconclusive: 2.82 µM [inhibitor, partial curve, poor fit]"}
    ]}
  ]
}
